The whole screen tested about 52,000 compounds, of which about 4,300 (8.3%) were called active. Cut-off read from the data, not from the text of the source: active = survival mostly below about 52% (no sharp cut-off); inactive = mostly above about 56%. This is one part of the list.
What follows are compounds tested on DeltatarO mutant (assay: growth inhibition of S. aureus wild type versus tarO mutant, primary screen, teichoic acid synthesis inhibitors, RN4220, OD600 (AID 463173)). Conditions: OD600, 18 h, active compounds read low, screened at 18.75 µg/mL (by protocol).
With `Cc1cccc(NC(=O)Nc2cccs2)c1C` the survival was inactive: 93%. In the case of `CCOC(=O)c1ccccc1NC(=O)CN(c1ccccc1)S(=O)(=O)c1ccc(OCC)cc1`, the survival is reported as inactive: 72%. With `CCCCCCc1c(C)c2c(cc(C)c3c(C)coc32)oc1=O` the survival was inactive: 91%. `COc1ccc(-c2cn3c(c2C)-c2ccc(C)n2CC3)cc1` was tested, and the survival was inactive: 91%. For `Cc1ccc(C)c(NC(=O)Cn2ncc3c(C)n(Cc4ccc(F)cc4)c(C)c3c2=O)c1`, the survival was inactive: 71%. `Cc1cc(C)c(NC(=O)Cn2c(=O)n(CCC(C)C)c(=O)c3cccnc32)c(C)c1` was tested, and the survival was inactive: 81%. With `COc1ccc(-c2nn(C)c3sc(C(=O)NCCN(C)C)cc23)cc1OC` the survival was inactive: 96%. For `COc1ccc(CNC(=O)CN2N=C(c3ccc(Cl)cc3)CCC2=O)cc1`, the survival was inactive: 119%. For `CCc1ccc(C(=O)c2cn(CC(=O)NCCc3ccccc3)c3nc(C)ccc3c2=O)cc1`, the survival was inactive: 67%. For `COc1ccc(C(=O)CC2(O)C(=O)N(Cc3ccccc3)c3ccc(Br)cc32)cc1` (stereo unspecified), the survival was inactive: 50%. In the case of `O=C(O)Cn1ccc(=O)[nH]c1=O`, the survival is reported as inactive: 96%. In the case of `COc1cccc(NC(=O)C2CCCN(c3ncnc4onc(-c5ccc(F)cc5)c34)C2)c1` (stereo unspecified), the survival is reported as inactive: 69%. For `CCOC(=O)c1c(Nc2ccc(C)c(C)c2)nnc(-c2ccccc2)c1-c1ccccc1`, the survival was active: -5%. `CCC1CCCCN1CCCNC(=O)c1ccc2c(c1)c(C)c(C)n2CC` (stereo unspecified) was tested, and the survival was inactive: 71%. `Cc1ccc(C)c(OCC(=O)Nc2sc3c(c2C#N)CCCC3)c1C` was tested, and the survival was inactive: 49%. For `CCCC(=O)Nc1cc2nn(-c3ccc(OC)cc3)nc2cc1C`, the survival was inactive: 59%. `Nc1nnc(CC(=O)N2CCCC2)s1` was tested, and the survival was inactive: 99%. In the case of `CCOc1ccc(NC(=O)NCCN2CCN(c3cc(Cl)ccc3C)CC2)cc1`, the survival is reported as inactive: 54%. In the case of `O=C(NCCc1ccccc1)c1c[nH]c2ccc(S(=O)(=O)Nc3ccc(F)cc3F)cc2c1=O`, the survival is reported as inactive: 72%. `COC(=O)Cc1[nH]nc2c1C(c1c[nH]c3ccccc13)C(C#N)=C(N)O2` (stereo unspecified) was tested, and the survival was inactive: 98%. For `CCc1ccc2[nH]c(=O)c(CN(Cc3ccco3)Cc3nnnn3Cc3ccccc3)cc2c1`, the survival was inactive: 85%. For `CCc1nc(SC)ncc1C(=O)NCc1cccc(Br)c1`, the survival was inactive: 89%. In the case of `O=C(Cn1nc(Cc2cccnc2)c2ccccc2c1=O)N1CCN(c2ccccc2F)CC1`, the survival is reported as inactive: 78%. For `Cc1ccc(Cl)cc1N1CCN(c2nc3ccc(C(=O)c4ccccc4)cc3n3cnnc23)CC1`, the survival was active: -4%. With `Cc1cc(O)c2c(C)c(CC(=O)NCc3ccccc3Cl)c(=O)oc2c1` the survival was inactive: 62%. In the case of `O=C(NCCSc1c[nH]c2ccccc12)c1ccc(Cl)cc1`, the survival is reported as active: 47%. For `O=C(NCCc1ccccc1)c1ccc2c(c1)N(Cc1ccc(Cl)cc1)C(=O)c1ccccc1S2(=O)=O`, the survival was inactive: 89%. For `CCN(c1ccccc1C)S(=O)(=O)c1nnc(NC(=O)c2ccc(OC)c(OC)c2)s1`, the survival was active: 40%. `Cc1ccc(C2=Nc3ccccc3N=C(c3ccc(F)cc3)C2)c(O)c1` was tested, and the survival was inactive: 60%. `CCCCn1c(CCCN2C(=O)c3ccccc3C2=O)nc2ccccc2c1=O` was tested, and the survival was inactive: 75%. In the case of `CCOc1ccc(NC(=O)CSc2nc3ccsc3c(=O)n2CCC(C)C)cc1`, the survival is reported as inactive: 88%. In the case of `Cc1ccc(NC(=O)C2CCN(S(=O)(=O)c3ccc4c(c3)CCCC(=O)N4)CC2)cc1N(C)C`, the survival is reported as inactive: 120%. `COc1ccc(OC)c(NC(=O)C(C)n2c(=O)c(-c3ccccc3NC(C)=O)nc3ccccc32)c1` (stereo unspecified) was tested, and the survival was inactive: 103%. With `COc1ccc(-c2nc(CSCC(=O)NCCC(C)C)c(C)o2)cc1OC` the survival was inactive: 68%. In the case of `COc1ccccc1NS(=O)(=O)c1cn(C)c(C)n1`, the survival is reported as active: 37%. `COc1ccc(N2CC(NC(=O)COc3cccc(C)c3)CC2=O)cc1OC` (stereo unspecified) was tested, and the survival was inactive: 71%. `COc1ccccc1N(CC(=O)Nc1ccccc1C(F)(F)F)S(=O)(=O)c1ccc(C)cc1` was tested, and the survival was inactive: 64%. With `Cc1ccc(C)c(N2CCN(C(=O)Cn3nc(C)c4sc5ccccc5c4c3=O)CC2)c1` the survival was inactive: 55%. With `COC(=O)c1ccc(Cc2ccccc2)o1` the survival was inactive: 86%. `O=C1C(c2nc3ccccc3[nH]2)=C(O)c2ccccc21` was tested, and the survival was inactive: 74%. For `Cc1oc2ccc(O)c(CN3CCCCCC3)c2c1C(=O)Nc1cccc(C(F)(F)F)c1`, the survival was inactive: 46%. For `O=C(CSc1cn(CC(=O)N2CCCCC2)c2ccccc12)NCc1ccccc1Cl`, the survival was inactive: 74%. In the case of `CC(C)c1ccc(NC(=O)c2cc3c(=O)[nH]c4ccccc4c3n2C)cc1`, the survival is reported as inactive: 70%. With `CCN1C(=O)c2ccccc2S(=O)(=O)c2ccc(C(=O)NCc3ccccc3OC)cc21` the survival was inactive: 85%. For `CCOC(=O)C1=C2SCCN2C(=O)C(C#N)C1(C)C` (stereo unspecified), the survival was inactive: 86%. `CCOC(=O)c1[nH]c2ccc(C)cc2c1NC(=O)OC` was tested, and the survival was inactive: 95%. For `Cc1nn(-c2ccccc2)c(Cl)c1/C=N/NC(=O)c1cccnc1`, the survival was inactive: 96%. In the case of `O=C(CN1C(=O)c2cccnc2Sc2ccccc21)Nc1cc(F)ccc1F`, the survival is reported as inactive: 79%. For `Cc1ccc(-n2nc(C)c3c(C(=O)NCCc4ccc(S(N)(=O)=O)cc4)cc(C)nc32)cc1`, the survival was inactive: 118%. For `COC(=O)Cn1c(O)c(N=NC(=O)C2COc3ccccc3O2)c2ccccc21` (stereo unspecified), the survival was inactive: 69%. `CCC1CN(C(=O)N2CCC(C(=O)NCc3cccc(F)c3)CC2)c2cc(C)ccc2O1` (stereo unspecified) was tested, and the survival was inactive: 79%. For `COc1ccc(C2/C(=C(\O)c3ccc(C)cc3)C(=O)C(=O)N2CCC(=O)O)cc1` (stereo unspecified), the survival was inactive: 88%. `O=C1C2C3c4ccccc4C(c4ccccc43)C2C(=O)N1O` (stereo unspecified) was tested, and the survival was inactive: 99%. For `COc1ccc(OC)c(CNC(=O)NCc2noc3ccc(C)cc23)c1`, the survival was inactive: 104%. `Cc1c(N2C(=O)CSC2=S)c(=O)n(-c2ccccc2)n1C` was tested, and the survival was inactive: 82%. `Cc1cc(Nc2cccc(Cl)c2)nc2ccc(NC(=O)COc3ccc(Cl)cc3)cc12` was tested, and the survival was inactive: 107%. With `Cc1cccc(NC(=O)Cn2c(SCC(=O)NCc3ccccc3)nc3ccccc32)c1C` the survival was inactive: 119%. In the case of `O=C(c1cnn(-c2ccc(F)cc2)c1-n1cccc1)N1CCN(c2ccccc2)CC1`, the survival is reported as inactive: 93%. In the case of `CNC(=O)CCC(=O)Nc1ccc(C)cc1`, the survival is reported as inactive: 104%. For `CCOc1ccc(-c2cn3nc(CC(C)C)sc3n2)cc1`, the survival was inactive: 116%. For `CCCCN(C)CCCNC(=O)c1cn(CC)c2ccc(S(=O)(=O)N3CCc4ccccc4C3)cc2c1=O`, the survival was inactive: 95%. In the case of `COc1ccc(NC(=O)Nc2cc(C(=O)NCc3ccc(C)cc3)ccc2N2CCCC2)cc1`, the survival is reported as inactive: 99%. For `C1=CCC(CN2CCNCC2)CC1` (stereo unspecified), the survival was inactive: 98%. With `COc1ccccc1CNC(=O)c1cc(S(=O)(=O)N2CCCC(C)C2)cn1C` (stereo unspecified) the survival was inactive: 93%. In the case of `CCc1ccc(NC(=O)CC2C(=O)N(c3ccc(F)cc3)C(=O)N2Cc2ccc(F)cc2)cc1` (stereo unspecified), the survival is reported as inactive: 87%. With `Cc1ccc(-n2nc(C)c3c(C(F)(F)F)cc(-c4cccnc4)nc32)cc1C` the survival was inactive: 42%. In the case of `Cc1ccccc1-c1nc(CN2CCC(C(=O)NC(C)C)CC2)c(C)o1`, the survival is reported as inactive: 86%. In the case of `CCCCc1nn2c(=O)cc(COC(=O)CNC(=O)COc3ccc(C)cc3)nc2s1`, the survival is reported as inactive: 80%. With `CCOC(=O)C1=C(CN2CCN(c3ccc(C)cc3C)CC2)NC(=O)NC1c1ccc(OC)cc1` (stereo unspecified) the survival was inactive: 97%. For `COc1ccc(N2CCN(CC(O)COc3c(OC)cccc3OC)CC2)cc1` (stereo unspecified), the survival was inactive: 71%. `CCOc1ccc(NC(=O)c2c(NCc3cccs3)sc3c2CCC(C)C3)cc1` (stereo unspecified) was tested, and the survival was inactive: 129%. In the case of `COc1ccc(C)cc1NS(=O)(=O)c1ccc2oc(=O)c3ncn(C)c3c2c1`, the survival is reported as inactive: 77%. In the case of `CCN(CC)c1ccc(C2C(C(N)=O)=C(C)Nc3nc(SCc4ccccc4Cl)nn32)cc1` (stereo unspecified), the survival is reported as inactive: 154%. For `CCOC(=O)c1ccc(N=C2SC(C(=O)Nc3ccccc3)CC(=O)N2C)cc1` (stereo unspecified), the survival was inactive: 60%. With `O=C(NCCSCc1ccccc1)C1CCN(S(=O)(=O)Cc2ccccc2)CC1` the survival was inactive: 66%. For `COc1ccc(CNC(=O)C2(c3cccs3)CCOCC2)cc1`, the survival was inactive: 72%. In the case of `COc1ccc(CC2=C(C)C(=O)N(c3ccc(OC)cc3)C2=O)cc1`, the survival is reported as inactive: 90%. In the case of `Cc1cccc(-n2c(SCC(=O)Nc3ccc(C)c(C)c3)nc3n[nH]c(C)c3c2=N)c1`, the survival is reported as inactive: 87%. With `CCOC(=O)c1ccccc1NC(=O)c1c(C)oc2ncnc(N3CCOCC3)c12` the survival was inactive: 88%. With `COc1cccc(-n2c(=O)c3c(C)c(C)sc3n(Cc3ccccc3C#N)c2=O)c1` the survival was inactive: 65%. In the case of `CCOc1ccc(CNC(=O)c2cc3ccccn3n2)cc1`, the survival is reported as active: 52%. `CCc1ccc(CCC(=O)Nc2ccc(C)c(C)c2)o1` was tested, and the survival was inactive: 76%. With `COc1ccc(-c2nc3sc(CCNC(=O)C(=O)Nc4ccccc4C#N)c(C)n3n2)cc1` the survival was inactive: 77%. With `CC(C)c1ccc(NC(=O)c2ccc(CN3CC(=O)N4CCCCC4C3=O)cc2)cc1` (stereo unspecified) the survival was inactive: 77%. `Cc1cccc(NC(=O)Cn2c(=O)n(Cc3ccccc3)c(=O)c3oc4ccccc4c32)c1C` was tested, and the survival was inactive: 72%. With `Cc1ccc(CNC(=O)c2c(Nc3c(C)cccc3C)sc(C(=O)c3ccccc3)c2N)cc1` the survival was inactive: 60%. `CCOc1ccc(C2C(C(N)=O)=C(C)Nc3nc(SCc4ccccc4F)nn32)cc1` (stereo unspecified) was tested, and the survival was inactive: 67%. `COc1ccccc1C(=O)Nc1ccc(C(=O)OCc2cc(=O)n3c4c(sc3n2)CCCC4)cc1` was tested, and the survival was active: 37%. With `CC(C)NC(=O)C1CCN(C(=O)C(C(=O)c2ccccc2)n2cc(Cl)ccc2=O)CC1` (stereo unspecified) the survival was inactive: 99%. In the case of `COc1ccccc1NC(=O)c1cnn(-c2ccccc2)c1-n1cccc1`, the survival is reported as inactive: 93%. `COc1cccc(-c2nn(C)c3sc(C(=O)NCc4ccc(OC)cc4OC)cc23)c1` was tested, and the survival was inactive: 68%.

— PubChem BioAssay AID463173 (ICCB-Longwood Screening Facility, Harvard Medical School, 2010)
